Measured values as given in the RNAGym collection of RNA variant scans (doi:10.1073/pnas.2313332121).
This sample is rich in variants without activity.

B1: TPR 5TU (parent)
chain: GGAUCUUCUCGAUCUAACAAAAAAGACAAAUCUGCCACAAAGCUUGAGAGCAUCUUCGGAUGCAGAGGCGGCAGCCUUCGGUGGCGCGAUAGCGCCAACGUUCUCAACUAUGACACGCAAAACGCGUGCUCCGUUGAAUGGAGUUUAUCAUG

Variants of: B1
Assay: polymerase ribozyme fitness, log enrichment relative to wild type (log ratio); higher = more active; in vitro selection for triplet polymerase activity
In short: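 Only genotypes with ≥10 input reads and ≥1 read per output were kept after Illumina sequencing of input and output libraries. These libraries were PCR-built, transcribed mutants of each subunit of a heterodimeric triplet polymerase ribozyme, each put through one triplicate in vitro selection round with frozen incubation at −7 °C, gel excision of extended constructs, streptavidin-bead capture and RT-PCR. Fitness is a logarithmic ratio of genotype enrichment to wild-type enrichment, from inverse-variance-weighted replicate averages, with the logarithm in base 2.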

Variant | polymerase ribozyme fitness (log ratio)
U9A G25U C36U G50C G86A | ≤ -4.2
U9A A21G C51U U53A G58C G71U A91G C96U | ≤ -4.2
U9G C18G C54G U55C C76A G92U U102A A137U U148A | ≤ -4.2
C8U G83U | -3.5
U9G C36G G83A A106G G143A | ≤ -4.2
U9C A22U G50C C85G C87G A98G G141C | ≤ -4.2
U9C A22G A23C G25C G83C | ≤ -4.2
C10A A28C U61A C76U U77A A147C | ≤ -4.2
U9C A16U U56A C76A C85A A91U C99G A119G | ≤ -4.2
U9G G71U A91C A106U A115G G124A | ≤ -4.2
U9A A28G A41C A64U G80U C87A C95U C131G | ≤ -4.2
U9G C57U G58C G81A C85A | ≤ -4.2
U9A A16G U45A C57A C75G G83U G92A | ≤ -4.2
C10A A30C U31A C38U G88U A107G | ≤ -4.2
U9C A16G A39C C51G G92C | ≤ -4.2
U9G A17C A52C G84A C118A | ≤ -4.2
C10A A20G A41C C95G G141A | ≤ -4.2
C10A A12G U53A U55A G92C G94C C105U | ≤ -4.2
U9A U56A A60G G74U A107U | ≤ -4.2
U9G | -2.82
U9C | -1.27
U9A | -2.7
U9A A24C A39U G59A | ≤ -4.2
U9A G92A U148A | ≤ -4.2

Variant | polymerase ribozyme fitness (log ratio)
U9G A142G | ≤ -4.2
U9C G62C C93U | ≤ -4.2
U9G A23U C132G U144G | ≤ -4.2
C10A A12U G80C G94A | ≤ -4.2
U9G C14A C38G C75G G83A A119C | ≤ -4.2
U9C C14U C57G C93G G140U | ≤ -4.2
C10A A41G C103A A110G | ≤ -4.2
U9G C87A U90A G136A | ≤ -4.2
U9G C87G U90A C93U U151C | ≤ -4.2
C8U U9C A20U A26G A97G | ≤ -4.2
U9C C57U G65C C69U C114G A142C | ≤ -4.2
U9A G48A G67U G84U C105G | ≤ -4.2
U9G C18G C96U G133U G136A | ≤ -4.2
U9A A17U A20G G46U A47U A52C G83A C95U | ≤ -4.2
U9G C93A C96U | ≤ -4.2
C10A A16U C93G | ≤ -4.2
U9C C10G C35U G94A C103A C108U A115U G140U | ≤ -4.2
U9A A22G G34A A106G C116U A120U | ≤ -4.2
U9G C63U A66C G100A | ≤ -4.2
U9A U44A U45A C72U C79G G86U U102C U144C U148G | ≤ -4.2
U9G A28G U53A G58A C96A C108G G133C | ≤ -4.2
U9A G42C C54G C69A C76A C79G C87A A91U A98U | ≤ -4.2
C10A A12U A47U C93G A137G | ≤ -4.2
U9G C32A U102C U134A A137C | ≤ -4.2

Variant | polymerase ribozyme fitness (log ratio)
U9G A17G A52U C75G G84A C105U | ≤ -4.2
C10A A41C C76A A91U C96G A121C U127G | ≤ -4.2
U9G C76G A89C G94U C108U A113U | ≤ -4.2
U9A A73G G84U C114G C116G G143A | ≤ -4.2
U9A A16U A19U C27G U77C G84A G100C G133U G141A U145A | ≤ -4.2
U9G A28C A39G A41C C51U C57G G59C G86A C125G A150G | ≤ -4.2
U9A G58A A64U | ≤ -4.2
U9A A16U C57U G70A C79A G88U C95U A119U U151A | ≤ -4.2
U9A C38U C95G A110U U111A | ≤ -4.2
U9G A17U C27G G50U U56G C87U A107C | ≤ -4.2
C10A A29C G42U G68A A89C C95A G141U | ≤ -4.2
U9G A19C A23G A39G C93G U139A G152U | ≤ -4.2
U9A G58C G83A C95U G141C U151C | ≤ -4.2
C10A A17C A20C G34U G58C U90G | ≤ -4.2
C8U U82G C87A | ≤ -4.2
C8U U9C C27A C35A U61G G83C A110C U151G | ≤ -4.2
U9A C14U A49U C51U G86U A89U | ≤ -4.2
C10A A23C | ≤ -4.2
U9G U13G A20G A39G G65C C72U A91U U134C | ≤ -4.2
U9A A19C G70A C93U A119C A121U C131A | ≤ -4.2
C10A A39G A40G U44G A91U A107G | ≤ -4.2
U9A A17G C32G C85U C116U A120C | ≤ -4.2
U9A C14G A47U U56G G84A A97G | ≤ -4.2
U9G U134G | ≤ -4.2

Variant | polymerase ribozyme fitness (log ratio)
U9G A60G G71A U82C C85A C87U | ≤ -4.2
U9G C93U | ≤ -4.2
U9G A49C | ≤ -4.2
U9G A19U C85A A137U | ≤ -4.2
U9G C18G C51U C57U C75G C85U | ≤ -4.2
C10A A37G A39G G74U A89U G94A U146G | ≤ -4.2
C10A A17G A52G A91G G94U A142G U146G | ≤ -4.2
U9A C18U U31C G67A G88U | ≤ -4.2
U9A G11U G68A G83A C95A A110G | ≤ -4.2
U9A C93A | -3.87
U9C C35G A39U C103G | ≤ -4.2
C8U G48U U55A G59A C75A C76U U145C | ≤ -4.2
U9C A30G A66C G84A A150C | ≤ -4.2
U9G U56A C87A A107G | ≤ -4.2
C8U G141C | -2.78
U9A A73U C85U C95A A115U C118U | ≤ -4.2
U9G A30U U55G G62A G92A G100U G117C U148G | ≤ -4.2
U9A A23C A64U C79G G88U U130A A147C | ≤ -4.2
C8U U13G C27A A29U U55G A89G G92U G136A A150U | ≤ -4.2
U9G C18U A41C U44G U90G | ≤ -4.2
U9G G34U C85A U139A | ≤ -4.2
U9A G67U U82G | ≤ -4.2
U9A A66G C75A G84A G128U U144C | ≤ -4.2
C10A A16U A28G G42A C57U C75G G80A G92U A98U | ≤ -4.2

Variant | polymerase ribozyme fitness (log ratio)
U9A C18U A19C C57G A73G C96U | ≤ -4.2
U9G C51G G86A | ≤ -4.2
C8U U9G A24G C54G U101A C105U G141U | ≤ -4.2
C8U U61A C76A G86U C93G U101C A122G | ≤ -4.2
U9G A21U A24G G71A G84U G126A | ≤ -4.2
U9A U13G A52G A91U C95A C114U U151G | ≤ -4.2
U9G G50A G83A G133U | ≤ -4.2
U9C U13G C103G | ≤ -4.2
C10A A12G A21C C54A | ≤ -4.2
U9G A12C U15A A30C U45A A49C U55A C95A C118U A147U | ≤ -4.2
U9C A12G A20C A26U C38U U44A A113G A121C U134G A138U | ≤ -4.2
U9C C57A C87A C116U | ≤ -4.2
U9G C10G A17G A22G A23U G50A A73G | ≤ -4.2
C8U G74U C79U C93A G143U | ≤ -4.2
U9G C18U A21U G34U C103G G128U A138U | ≤ -4.2
U9C U56G G86U C96U | ≤ -4.2
U9G U15A A98U C108U G141C | ≤ -4.2
U9G U82A G94C G140C | ≤ -4.2
C10A A17G A52U G59C U61A G83U A97C C108U U134A U139G | ≤ -4.2
U9G C103A | -3.73
C8U G59A U90C C93U U135C A142C | ≤ -4.2
U9G A24C U61A G84U A122G | ≤ -4.2
U9A A39U A52G C79G G84C C108U | ≤ -4.2
U9C A24U A41G C75U G83A G84A C93A | ≤ -4.2

Variant | polymerase ribozyme fitness (log ratio)
U9C C38U A52U C75G G92U G94A G136U U144G | ≤ -4.2
U9G A21U C35U U55A C108U C118U G128A G133A | ≤ -4.2
C10A A20G A41G G46A A47C C57U C85G G133U | ≤ -4.2
C8U U61G C76A G88A C96U | ≤ -4.2
U9C A37C G46C G92U U109G U145A | ≤ -4.2
C10A A23C G50A C75G C95U C96A C123G | ≤ -4.2
U9A A21U A41G G59A A91C C118U | ≤ -4.2
U9C A12C G48U G86A U90G U109G A147U A150C U151A | ≤ -4.2
U9A A17U A26G C79U | ≤ -4.2
U9G A52G C57U G68C G80C C85G C149U | ≤ -4.2
U9G C32G G59A G92A G141U | ≤ -4.2
C10A A21U G84A A97U A113G | ≤ -4.2
U9G A28C C36A A97G C116A A119U | ≤ -4.2
U9A A41C C93U A97U C118U | ≤ -4.2
U9A A12C A21U U31G C95G A115G A147C | ≤ -4.2
U9C G11A C27G U55G A66G U78G U82A | ≤ -4.2
U9G C57A G86C G126U U145C | ≤ -4.2
U9C A28U U31A C57A G86A A113C | ≤ -4.2
U9G A24G C27U A41C A47U C57G G59A U61A C69G G124A A142U | ≤ -4.2
U9G C14U C36U C76A A97U | ≤ -4.2
U9C A40C U45A G65C C85A U111G A113U C118G | ≤ -4.2
U9C A23G A41C C95U | ≤ -4.2
U9C A29G U55G A66G C69A G71U C79A G84A | ≤ -4.2
C10A A23U G83U | ≤ -4.2

Variant | polymerase ribozyme fitness (log ratio)
U9G A20U U31C C38G G86A U127G | ≤ -4.2
U9A A23U U77A | ≤ -4.2
U9C A37C U55G A66C G70C C76A C131U | ≤ -4.2
U9A A24U A52G G70C C116U | ≤ -4.2
C10A A21G A29G C51U A52G U78C C95A A122U U146G | ≤ -4.2
U9A U15G G50C G94A U135C G143A | ≤ -4.2
U9G C32G G71A | ≤ -4.2
U9A A41C G86U U139A U144C | ≤ -4.2
C10A A21G U53A C54A C57U C69A C95U A106U G143A | ≤ -4.2
U9G U55G G92U C99U C125A | ≤ -4.2
U9C U53A C57A C79A A107G C131A | ≤ -4.2
U9G C32A A39C C69A C75U G81A | ≤ -4.2
U9G C105G G143A | ≤ -4.2
U9G A40U G88C G133U G136A G141A | ≤ -4.2
U9C A37G C87U U135C G136U | ≤ -4.2
U9C A16G C35A G42A C99U | ≤ -4.2
U9A C32A G50A U56C C72A A98U A113G C114G | ≤ -4.2
U9G C18G A30U C35G C87G A147G | ≤ -4.2
U9G A37G C54A C85G G140C | ≤ -4.2
U9A G128C U139A | ≤ -4.2
U9A A12C A23G G42C C51A A120C A121U | ≤ -4.2
U9C A47U | -3.94
U9A C43U U55A U77A C85G | ≤ -4.2
